Test results published in publication PMC4336329 (PLoS ONE, 2015).
Screen size: about 310,000 compounds; about 2,200 (0.71%) showed an effect of 50% or more. The effect is printed as a negative number. Some of the results follow.

These compounds were tested against human ether-à-go-go-related gene (hERG) potassium channel (human, UniProt Q12809) (assay: primary screen, population patch clamp on CHO cells stably expressing hERG).
Sequence of human ether-à-go-go-related gene (hERG) potassium channel (Q12809 whole entry, looked up): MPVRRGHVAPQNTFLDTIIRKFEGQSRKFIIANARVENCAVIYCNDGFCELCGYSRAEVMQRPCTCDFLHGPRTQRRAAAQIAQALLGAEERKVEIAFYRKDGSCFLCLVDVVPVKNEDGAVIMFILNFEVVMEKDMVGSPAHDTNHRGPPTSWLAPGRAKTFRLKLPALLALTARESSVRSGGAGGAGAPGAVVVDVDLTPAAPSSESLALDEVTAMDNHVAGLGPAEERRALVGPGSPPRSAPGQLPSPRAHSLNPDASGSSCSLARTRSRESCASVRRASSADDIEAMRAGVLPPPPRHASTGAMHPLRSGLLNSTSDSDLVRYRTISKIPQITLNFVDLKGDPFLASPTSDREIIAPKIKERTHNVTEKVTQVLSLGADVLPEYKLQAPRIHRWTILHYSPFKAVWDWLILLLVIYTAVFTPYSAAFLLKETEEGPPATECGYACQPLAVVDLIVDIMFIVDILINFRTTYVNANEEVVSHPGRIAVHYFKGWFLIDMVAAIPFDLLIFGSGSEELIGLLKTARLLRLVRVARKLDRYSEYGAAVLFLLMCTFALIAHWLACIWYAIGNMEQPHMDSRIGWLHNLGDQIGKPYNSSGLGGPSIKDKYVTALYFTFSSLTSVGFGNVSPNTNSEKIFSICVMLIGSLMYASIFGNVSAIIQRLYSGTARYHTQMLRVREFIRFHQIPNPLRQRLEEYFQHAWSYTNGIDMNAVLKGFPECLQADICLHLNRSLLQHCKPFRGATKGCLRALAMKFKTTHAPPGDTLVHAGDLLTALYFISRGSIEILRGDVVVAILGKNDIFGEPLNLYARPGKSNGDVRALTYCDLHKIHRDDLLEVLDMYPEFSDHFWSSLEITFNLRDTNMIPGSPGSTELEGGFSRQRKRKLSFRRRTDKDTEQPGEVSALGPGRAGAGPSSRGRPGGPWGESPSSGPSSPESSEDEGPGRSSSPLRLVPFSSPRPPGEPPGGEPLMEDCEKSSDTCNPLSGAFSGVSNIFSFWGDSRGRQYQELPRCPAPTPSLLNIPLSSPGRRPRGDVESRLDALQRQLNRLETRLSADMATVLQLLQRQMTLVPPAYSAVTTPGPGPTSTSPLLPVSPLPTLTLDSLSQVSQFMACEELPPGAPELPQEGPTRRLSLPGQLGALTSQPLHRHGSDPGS
In the case of `Cc1cccc(NC(=O)CSc2nc3ccccc3c(=O)n2C)c1`, the “hERG current change (%, negative = inhibition) at 1uM” value is reported as 2.45%.
With `CCCOc1cccc(C(=O)NC(=S)Nc2ccc(N3CCN(C)CC3)cc2)c1` the “hERG current change (%, negative = inhibition) at 1uM” value was 11.2%.
`Cc1ccc(S(=O)(=O)N2CCCCC2CCNC(=O)C(=O)NCc2ccccc2C)cc1` (centres unmarked) was tested, and the “hERG current change (%, negative = inhibition) at 1uM” value was 10.6%.
In the case of `COc1ccccc1N1CC(C)C(=O)NC1=S` (centres unmarked), the “hERG current change (%, negative = inhibition) at 1uM” value is reported as 15%.
In the case of `Cc1c(C(=O)N2CCc3ccccc32)oc2ccccc12`, the “hERG current change (%, negative = inhibition) at 1uM” value is reported as 12.4%.
In the case of `CC1CN(C(=O)CN2C(=O)c3ccccc3S2(=O)=O)CC(C)O1` (centres unmarked), the “hERG current change (%, negative = inhibition) at 1uM” value is reported as 9.92%.
With `COc1ccc(Nc2nc(N3CCCC3)nc3ccccc23)c(OC)c1` the “hERG current change (%, negative = inhibition) at 1uM” value was -7.36%.
`CC1CCN(C(=O)CSc2nc3cccnc3n2C)CC1` was tested, and the “hERG current change (%, negative = inhibition) at 1uM” value was 5.46%.
In the case of `CCOC(=O)c1ccc(N2C(=O)CC(C(=O)OC)=C2C)cc1`, the “hERG current change (%, negative = inhibition) at 1uM” value is reported as 19.6%.
`CN(C)c1ccc(P(=O)(COc2ccc([N+](=O)[O-])cc2)c2ccc(N(C)C)cc2)cc1` was tested, and the “hERG current change (%, negative = inhibition) at 1uM” value was -7.21%.
With `CCc1nnc(NC(=O)CSc2nc(N)c(NC(=O)c3ccc(OC)cc3)c(=O)[nH]2)s1` the “hERG current change (%, negative = inhibition) at 1uM” value was 12.3%.
With `CCOCCc1nn2c(=O)cc(CSCC(=O)Nc3cc(C)cc(C)c3)nc2s1` the “hERG current change (%, negative = inhibition) at 1uM” value was 6.35%.
`O=C(/C=C/c1ccccc1)NC(=S)Nc1ccc2c3c(cccc13)CC2` was tested, and the “hERG current change (%, negative = inhibition) at 1uM” value was 17.4%.
For `Cc1ccc(C(=O)N=c2sccn2C)o1`, the “hERG current change (%, negative = inhibition) at 1uM” value was 16%.
For `COc1ccc(-c2ccc(S(=O)(=O)NCC3CCCO3)cc2)cc1` (centres unmarked), the “hERG current change (%, negative = inhibition) at 1uM” value was 8.43%.
In the case of `C=CCNC(=O)c1ccc(Cn2c(=S)[nH]c3cc4c(cc3c2=O)OCO4)cc1`, the “hERG current change (%, negative = inhibition) at 1uM” value is reported as 15.7%.
With `COc1cccc2cc(C(=O)Nc3cc(C)cc(C)c3)/c(=N/NS(=O)(=O)c3ccccc3)oc12` the “hERG current change (%, negative = inhibition) at 1uM” value was 14.3%.
With `CCOc1ccccc1N1CCN(C(=O)C2CSC3(C)CCC(=O)N23)CC1` (centres unmarked) the “hERG current change (%, negative = inhibition) at 1uM” value was 5.01%.
`CC1CCN(C(=O)C2Cc3ccccc3CN2S(=O)(=O)c2ccc(F)cc2)CC1` (centres unmarked) was tested, and the “hERG current change (%, negative = inhibition) at 1uM” value was 8.64%.
For `Cl.O=C(O)CCCCCNc1nc(-c2ccccc2)nc2ccccc12`, the “hERG current change (%, negative = inhibition) at 1uM” value was 2.37%.
`CC(=O)NCCC(=O)N1CCc2c([nH]c3ccccc23)C1c1cccc(C)c1` (centres unmarked) was tested, and the “hERG current change (%, negative = inhibition) at 1uM” value was 7.12%.
`O=c1[nH]c(=O)n(-c2ccccc2)c(O)c1C=NC12CN3CN(CN(C3)C1)C2` was tested, and the “hERG current change (%, negative = inhibition) at 1uM” value was 12.3%.
With `O=C(O)C1C2C=CC(C2)C1C(=O)NCc1ccccc1` (centres unmarked) the “hERG current change (%, negative = inhibition) at 1uM” value was 6.75%.
With `Cc1cc(Oc2cc(N)cc([N+](=O)[O-])c2)ccc1Cl` the “hERG current change (%, negative = inhibition) at 1uM” value was 6.54%.
`CC(C)C(=O)Nc1ncc(Cc2cccc(Cl)c2)s1` was tested, and the “hERG current change (%, negative = inhibition) at 1uM” value was 8.51%.
For `CCOC(=O)C1CCCN(C(=O)COC(=O)c2ccc(C#N)cc2)C1` (centres unmarked), the “hERG current change (%, negative = inhibition) at 1uM” value was 11.3%.
With `COc1ccccc1N(C)S(=O)(=O)c1ccc(Cl)c(C(=O)NCC2(N(C)C)CCCCC2)c1` the “hERG current change (%, negative = inhibition) at 1uM” value was -6.59%.
`COc1ccc(Cl)cc1NC(=O)CN(C)C(=O)Cc1ccc2c(c1)CCC2` was tested, and the “hERG current change (%, negative = inhibition) at 1uM” value was 10.8%.
In the case of `O=C(NCCCN1CCOCC1)C1CCCN(S(=O)(=O)N2CCCCC2)C1` (centres unmarked), the “hERG current change (%, negative = inhibition) at 1uM” value is reported as 47.8%.
For `CC(=O)Nc1cccc(NC(=O)CCCC2CCCCC2)c1`, the “hERG current change (%, negative = inhibition) at 1uM” value was 13.3%.
For `CCCCn1c(-c2cccs2)nc2nc3ccccc3nc21`, the “hERG current change (%, negative = inhibition) at 1uM” value was 1.91%.
In the case of `Cc1ccc(C)c(CN2C(=O)C(C)Oc3ccc(C)cc32)c1` (centres unmarked), the “hERG current change (%, negative = inhibition) at 1uM” value is reported as 6.4%.
`O=C1CCCN1CCCn1cnc2c([nH]c3ccc(F)cc32)c1=O` was tested, and the “hERG current change (%, negative = inhibition) at 1uM” value was -4.32%.
In the case of `Cc1nn(CCCC(=O)NCc2ccccc2)c(=O)c2nn(-c3ccccc3)c(C)c12`, the “hERG current change (%, negative = inhibition) at 1uM” value is reported as 9.77%.
In the case of `O=C1Nc2cc(Cl)cnc2N2CCCC12` (centres unmarked), the “hERG current change (%, negative = inhibition) at 1uM” value is reported as 5.76%.
With `O=C(CSc1nc2ccccc2s1)Nc1ccc(Cl)c(C(=O)O)c1` the “hERG current change (%, negative = inhibition) at 1uM” value was 17.6%.
With `CCOC(=O)[C@@H]1[C@H]2COc3ccccc3[C@@H]2N2C(=O)N(c3ccc(F)cc3)C(=O)[C@]12C` the “hERG current change (%, negative = inhibition) at 1uM” value was 8.73%.
`CC(=O)c1c(C)[nH]c(C(=O)COc2cc(C)cc(C)c2)c1C` was tested, and the “hERG current change (%, negative = inhibition) at 1uM” value was 9.98%.
In the case of `COCCNCC(=O)N1c2ccccc2Sc2ccccc21`, the “hERG current change (%, negative = inhibition) at 1uM” value is reported as 12.9%.
`Cc1nn(Cc2ccccc2)c(Cl)c1/C=C/C(=O)OCC(=O)NC(C)C(C)C` (centres unmarked) was tested, and the “hERG current change (%, negative = inhibition) at 1uM” value was 14.8%.
`CCOC(=O)c1nn(-c2ccccc2)c2nnc(Cc3ccc(C)cc3)c(=O)n12` was tested, and the “hERG current change (%, negative = inhibition) at 1uM” value was 22%.
With `CN(C)S(=O)(=O)c1cccc(NC(=O)c2ccc(S(=O)(=O)N3CCCCC3)cc2)c1` the “hERG current change (%, negative = inhibition) at 1uM” value was 17.2%.
With `CC(=O)N1c2ccc(S(=O)(=O)N3CCC(C(=O)NCCc4ccc(Cl)cc4)CC3)cc2CC1C` (centres unmarked) the “hERG current change (%, negative = inhibition) at 1uM” value was 8.92%.
`Cc1cc(C(F)(F)F)nn1CCCNC(=O)c1cnccn1` was tested, and the “hERG current change (%, negative = inhibition) at 1uM” value was -11.6%.
